Not every entry of the source has a single result; some have several. They are shown here; other results are not. An entry can have further records. The values listed for one entry are repeated measurements across runs, samples, wells, individuals or studies. Marks such as (2×) count equal records among those shown. Marks such as [2022-09] give the month of the run. Each block holds one compound with its values, some of them ahead of it.
Test system: MPNST multicellular tumor spheroids, viability % test/control
Test: Anticancer human tumor MPNST cell line growth inhibition;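 further: spheroids exposed to agents for seven days after three days of growth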;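 on viability, T/C: luminescence signal used as surrogate for viable cell amount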
Settings: for viability, T/C: stronger effect = lower value; for IC50: compound alone
Excerpt: Multicellular complex tumor spheroid response to DNA repair inhibitors in combination with DNA-damaging drugs
This study explores the anticancer activities of DNA-damaging drugs and inhibitors of DNA damage repair, both as single agents and in combinations. Complex tumor spheroids comprised of malignant cells, endothelial cells and mesenchymal stem cells served as an in vitro model for human solid tumors. This model system incorporates physiologically relevant features and patient-derived or established malignant cell lines with clinically relevant genetic alterations from many tumor types. Twenty-six patient-derived or established malignant cell lines were evaluated representing sarcoma, melanoma, small cell lung cancer (SCLC), non-small cell lung cancer (NSCLC), as well as bladder, ovarian and pancreatic cancers. The concentration ranges selected for each drug and investigational agent were based upon clinically achievable concentrations if the clinical Cmax of the agent was known.
Compounds. The drugs and compounds olaparib (NSC753686), talazoparib (NSC767125), berzosertib (NSC777718), elimusertib (NSC800525), nedisertib (NSC802822), VX-984 (NSC792969), AZD-1390 (NSC803789), temozolomide (NSC362856), topotecan (NSC609699), trabectedin (NSC813783), staurosporine (NSC755774), and gemcitabine (NSC613327) were obtained from the National Cancer Institute (NCI) Developmental Therapeutics Program Chemical Repository. The FDA-approved anticancer drug set is available from the Developmental Therapeutics Program at https://dtp.cancer.gov/organization/dscb/obtaining/available_plates.htm. […] The stock solutions were prepared in dimethyl sulfoxide (DMSO, Sigma-Aldrich, St. Louis, MO, cat. D2650) at 400-fold the tested concentration and stored at -70 degrees C. Prior to their use, the stock solutions were diluted in fresh medium and the final DMSO concentration in the assay was 0.25% (v/v). All drugs and investigational agents were tested over a range starting from a high concentration at or near the clinical Cmax and decreasing in half-log increments. If the clinical Cmax for an agent had not been determined, the highest concentration tested was 10 microM.
Cell Lines. The patient-derived cancer cell (PDC) lines: 156681-154-R-J1-PDC, 283228-195-R-J1-PDC, 287954-098-R-J1-PDC, 292921-168-R-J2-PDC, 349418-098-R-PDC, 425362-245-T-J1-PDC, 556581-035-R-J1-PDC, and BL0293-F563-PDC were received from the NCI Patient-Derived Models Repository (PDMR, https://pdmr.cancer.gov). The established cell lines HS-SY-2 (RRID:CVCL_8719), MPNST, and SYO-1 (RRID:CVCL_7146) were obtained from the Sloan Kettering Institute. The alveolar soft parts sarcoma cell line ASPS-1 (RRID:CVCL_S738) was established at the NCI and grown from internal seed stocks. The following established cell lines were purchased from the American Type Culture Collection (ATCC, Manassas, VA): G-401 (ATCC, cat. CRL-1441, RRID:CVCL_0270), SW982 (ATCC, cat. HTB-93, RRID:CVCL_1734), VA-ES-BJ (ATCC, cat. CRL-2138, RRID:CVCL_1785), NCI-H719 (ATCC, cat. CRL-5837, RRID:CVCL_1582), NCI-H196 (ATCC, cat. CRL-5823, RRID:CVCL_1509), NCI-H841 (ATCC, cat. CRL-5845, RRID:CVCL_1595), NCI-H1618 (ATCC, cat. CRL-5879, RRID:CVCL_1480), NCI-H1876 (ATCC, cat. CRL-5902, RRID:CVCL_1503), DMS 114 (ATCC, cat. CRL-2066; RRID:CVCL_1174), NCI-H211 (ATCC, cat. CRL-5824; RRID:CVCL_1529), and SW 1271 (ATCC, cat. CRL-2177, RRID:CVCL_1716). The small cell lung cancer cell line COR-L88 was purchased from Sigma-Aldrich (cat. 92031917-1VL, RRID:CVCL_1141). The non-small cell lung cancer cell lines NCI-H226 (RRID:CVCL_1544) and NCI-H322M (RRID:CVCL_1557) were established at the NCI and grown from internal seed stocks. Pooled donor human umbilical vein endothelial cells (HUVEC, Lonza, cat. CC-2519) and human mesenchymal stem cells (hMSC, Lonza, cat. PT-2501) were purchased from Lonza (Walkersville, MD).
Cell Culture. All cells were maintained in an incubator at 37 degrees C and 5% CO2 with 95% humidity. […]

SMILES: Cn1nnc2c(C(N)=O)ncn2c1=O
viability, T/C (compound alone 1 µM): 86.3 (2×), 90.3, 103, 85.2, 95.1, 90.2, 111, 80, 72.5%
viability, T/C (compound alone 3.16 µM): 101, 76.1, 123, 92.4, 93.7, 89.2, 95.5, 99, 81, 69.2%
viability, T/C (compound alone 10 µM): 94.8, 96.6, 108, 94.2, 87.3, 97, 106, 94.5, 83.1, 72.4%
viability, T/C (compound alone 31.6 µM): 98.5, 78.3, 109, 91.3, 82.6, 99.6, 48.7, 98.7, 80.5, 79.3%
viability, T/C (compound alone 100 µM): 90.8, 75.5, 82.7, 94.3, 85.5, 97.9, 37.9, 104, 95.8, 67.6%

SMILES: Cc1sc2c(c1C)C(c1ccc(Cl)cc1)=NC(CC(=O)Nc1ccc(O)cc1)c1nnc(C)n1-2 (centres undefined)
IC50: 1.32 µM, > 3 µM [2019-11] and 155 nM [2019-12]

SMILES: COc1ccc([C@@H](O)c2cc(-c3ncnc4cc(N5CCOCC5)ccc34)c(F)cc2Cl)nn1
IC50: 1.74 µM [2019-11] and 1.17 µM, < 31.6 nM [2019-12]
viability, T/C (compound alone 3.16 µM): 37.4% [2019-11] and 31.4%, 7.89% [2019-12]
viability, T/C (compound alone 10 µM): 29.7% [2019-11] and 17.2%, 3.36% [2019-12]

SMILES: O=C(c1cc(Cc2n[nH]c(=O)c3ccccc23)ccc1F)N1CCN(C(=O)C2CC2)CC1
IC50: > 30 µM [2019-11] and 1.36 µM [2019-12]

SMILES: COc1cc2c(cc1O)CCNC21CSC2c3c(OC(C)=O)c(C)c4c(c3C(COC1=O)N1C(O)C3Cc5cc(C)c(OC)c(O)c5C(C21)N3C)OCO4 (centres undefined)
viability, T/C (compound 30 pM): 93.8, 86.8, 102, 62.2, 118, 91.2, 98.7, 79.2, 98.5, 79.6%
viability, T/C (compound 94.9 pM): 54.8, 72, 97.5, 72.4, 81.7, 105, 106, 92.6, 104, 86.2%
viability, T/C (compound alone 0.0003 µM): 41, 67.1 (2×), 75.9, 53.2, 77.1, 88, 76.8, 109, 74%
viability, T/C (compound alone 0.000949 µM): 23.9, 42.1, 39.7, 33.4, 46.7, 37.4, 44.3, 47, 92.1, 45.2%
IC50 (run of 12/16/2019): 0.207, 0.644, 0.682, 0.406, 0.613, 0.659, 0.813, 0.843, 1.79, 0.782 nM

IC50 (run of 11/07/2019): 185, 210, 70.8, 181, 66.6 nM
SMILES: CC[C@@]1(O)C(=O)OCc2c1cc1n(c2=O)Cc2cc3c(CN(C)C)c(O)ccc3nc2-1
viability, T/C (compound alone 0.003 µM): 94.3, 101, 100, 92, 80.9% [2019-11] and 74.4, 100, 85.2, 97.3, 74% [2019-12]
viability, T/C (compound alone 0.00949 µM): 95.4, 88.2, 72.4, 81.4, 77.9% [2019-11] and 81.5, 105, 85.2, 80, 65.3% [2019-12]
viability, T/C (compound alone 0.0949 µM): 55.2, 59.2, 51.5, 54.9, 47.9% [2019-11] and 36.3, 44.1 (2×), 46.6, 32.8% [2019-12]

Reference: PubChem BioAssay AID1845205 (Molecular Pharmacology Branch, DTP, NCI, 2023)
